# Read counts are not given, so values of variants with three or more changes are uncertain.
# B1: CPEB3 Ribozyme (parent)
# chain: UAACAGGGGGCCACAGCAGAAGCGUUCACGUCGCAGCCCCUGUCAGAUUCUGGUGAAUCUGCGAAUUCUGCUGUAUAUCUC
# Variants of: B1
# Test: self-cleavage, relative activity (ratio to wild type); higher = more cleavage; in vitro, sequencing
# Outline: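 Barcoded CPEB3 ribozyme mutants, produced by rounds of error-prone PCR, self-cleaved while being transcribed with T7 RNA polymerase for 5 hours at 37°C and during a subsequent 15 min DNase I step before EDTA was added. Sequencing of template-switched cDNA on Illumina gave cleaved and total reads, and DNA sequencing assigned barcodes to variants. Each variant's relative activity is its cleaved/total read fraction divided by the unmutated ribozyme's fraction, averaged across three batches. A variant needed a minimum of 5 reads.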
row,Variant,self-cleavage
1,A21G C62U U80A,0.11
2,A21G C68G A75G,0.14
3,A21G G22A A45U A47C U51A U58C U76C,0.04
4,A21G G22A C23U U41C A45C C50A U67C,0.1
5,A21G G22A U26C C59G,0.08
6,A21G G22U A47G,0.19
7,A21G G22U G33C U41C G55U,0.07
8,A21G G24A A28G,0.36
9,A21G G24A A64U,0.11
10,A21G G24A U25C G70A,0.29
11,A21G G24A U51A U60C U80C,0.23
12,A21G G24A U51C,0
13,A21G G24A U54A,0.14
14,A21G G24C A35G,0.39
15,A21G G24C A35U G36U U67A U76C U78A,0.06
16,A21G G24C U41A U78C,0.17
17,A21G G24C U76C,0.08
18,A21G G24U C38A U51C,0.05
19,A21G G24U C38U U49A U72C U74A,0.04
20,A21G G30A A56G U58C U80C,0.16
21,A21G G30A C39A U54A C59A U67C,0.05
22,A21G G30U U43C A64G,0.13
23,A21G G33A A45G U58G U80C,0.26
24,A21G G33A A65G U76C,0.38

row,Variant,self-cleavage
1,A21G G33A U69A,0.06
2,A21G G33U A35U U54G,0.17
3,A21G G33U C39G A47G,0.07
4,A21G G33U U49A A77G,0.05
5,A21G G36A C40U U72A,0.31
6,A21G G36A U54C U78A,0.14
7,A21G G36U A57G A77U,0.06
8,A21G G42A A56U,0.16
9,A21G G42A U66A,0.35
10,A21G G42U U51A A56G,0.04
11,A21G G46A U54C U60C,0.08
12,A21G G46A U78A,0.35
13,A21G G52A U66C,1.16
14,A21G G52C A57U U78C,0.3
15,A21G G52C U80G,0.58
16,A21G G52U U54A,0.26
17,A21G G52U U54A U72C,0.5
18,A21G G53A C62G U76C,0.2
19,A21G G53A U80C,0.71
20,A21G G53U A56U A57G U60A U72C,0.09
21,A21G G55U U76C,0.17
22,A21G G61U U74A,0.72
23,A21G G63A U80C,0.54
24,A21G G73U U80C,0.86

row,Variant,self-cleavage
1,A21G U25A A28G U41A U51A U80A,0
2,A21G U25A A35G A56U,0.12
3,A21G U25A A35G U41A U43C A57G,0.35
4,A21G U25A C39U U49A G52A A65G A77G,0.03
5,A21G U25A C79U U80C,0.31
6,A21G U25A U26C,0.22
7,A21G U25A U49A U60C,0.08
8,A21G U25A U54C A75U U78C,0.09
9,A21G U25C A28C C40A U43C A57U,0.27
10,A21G U25C A28G U72A,0.07
11,A21G U25C A28U A35G,0.33
12,A21G U25C A45C U60C U72C U76C,0.11
13,A21G U25C A45G U60A A64G U80C,0.29
14,A21G U25C A47G U54C A64G,0.07
15,A21G U25C A47G U54C G70A U72C,0.06
16,A21G U25C A57G,0.19
17,A21G U25C A57G U69C U78C,0.17
18,A21G U25C A57G U72A,0.03
19,A21G U25C A64G,0.27
20,A21G U25C A77G U78C,0.08
21,A21G U25C C32A A45U U48C,0.15
22,A21G U25C C32G,0.14
23,A21G U25C C34A G73U A77C,0.09
24,A21G U25C C34U U48C U66C,0.13

row,Variant,self-cleavage
1,A21G U25C C37A U41C C68A,0.35
2,A21G U25C C38A C71A,0.04
3,A21G U25C C38G A47G A64G A77U,0.04
4,A21G U25C C40A U51A C62U,0.11
5,A21G U25C C62A,0.07
6,A21G U25C G33A U43C U54C,0.07
7,A21G U25C G53C A57G U69G U72C,0.03
8,A21G U25C G63A A64G,0.08
9,A21G U25C U26A A47G A56C A65U U80C,0.09
10,A21G U25C U26A U51A A65G U80A,0.06
11,A21G U25C U26C A35G U49A U67C,0.02
12,A21G U25C U26C U74A A77G,0.29
13,A21G U25C U31C A75G U78C,0.05
14,A21G U25C U31C G33A U58A,0.04
15,A21G U25C U31C U51A U72C,0.14
16,A21G U25C U41A,0.09
17,A21G U25C U43C A45C C79G,0.02
18,A21G U25C U43C U51A U66C,0.21
19,A21G U25C U49C,0.16
20,A21G U25C U49C A77U,0.05
21,A21G U25C U51C U54A A57G C79A,0.04
22,A21G U25C U54A A64G A65G,0.06
23,A21G U25C U54A U72C,0.31
24,A21G U25C U74C,0.3

row,Variant,self-cleavage
1,A21G U25G U31A U41A A65G U80C,0.07
2,A21G U25G U31C U54A U78C,0.05
3,A21G U25G U31C U76A,0.07
4,A21G U26A A28G,0.33
5,A21G U26A A28G G30U U69A,0.01
6,A21G U26A A28G G46A U51A,0.19
7,A21G U26A A35U A75G U80A,0.1
8,A21G U26A A35U U41C U74C,0.34
9,A21G U26A A45G,0.23
10,A21G U26A A47U,0.09
11,A21G U26A A57G U60A,0.18
12,A21G U26A G30U U54C A57G U66C U67A,0.1
13,A21G U26A G36A,0.16
14,A21G U26A G55U U78C,0.24
15,A21G U26A U31C,0.14
16,A21G U26A U41C,0.22
17,A21G U26A U48C U69C,0.26
18,A21G U26A U54C C81U,0.62
19,A21G U26A U60C,0.19
20,A21G U26A U60C U80A,0.26
21,A21G U26A U67C,0.08
22,A21G U26A U80C,0.58
23,A21G U26C A28G A35G C50A U80C,0.64
24,A21G U26C A35U U51C U60C U74C,0.07

row,Variant,self-cleavage
1,A21G U26C A45U A47U,0.11
2,A21G U26C A47G U80A,0.33
3,A21G U26C A56G U69A U72A,0.2
4,A21G U26C A56U U72A,0.05
5,A21G U26C A57U,0.42
6,A21G U26C C27U U51A,0.17
7,A21G U26C C32A,0.52
8,A21G U26C G33A U76A,0.1
9,A21G U26C G55A,0.27
10,A21G U26C G55A A57G U66C,0.08
11,A21G U26C U31C U69C,0.17
12,A21G U26C U31C U72G,0.19
13,A21G U26C U41C U54C,0.27
14,A21G U26C U43C A45G,0.21
15,A21G U26C U48C A56U,0.07
16,A21G U26C U51A A56G U69A,0.08
17,A21G U26C U58C,0.25
18,A21G U26C U67C,0.09
19,A21G U26C U69A,0.2
20,A21G U26C U74C,0.48
21,A21G U26C U76C,0.26
22,A21G U26C U76C A77G,0.11
23,A21G U26G A56G U78A,0.04
24,A21G U26G A75G,0.27

row,Variant,self-cleavage
1,A21G U26G G52A U76C,0.02
2,A21G U26G U31C U41C A65G C71A,0.07
3,A21G U26G U66C,0.23
4,A21G U31A A45G,0.38
5,A21G U31A A56G U72C U78C,0.17
6,A21G U31A A57G U66A A75G,0.06
7,A21G U31A A57G U72A,0.1
8,A21G U31A G33A C37U U51A U72A,0
9,A21G U31A U48A,0.23
10,A21G U31A U48C A64G,0.19
11,A21G U31A U49A U51C U67C U72C,0.11
12,A21G U31A U49A U60A,0.17
13,A21G U31A U51A,0.29
14,A21G U31A U51A A57G U80A,0.16
15,A21G U31A U51A U69C,0.09
16,A21G U31A U51C U76A,0.18
17,A21G U31A U60A,0.24
18,A21G U31C A35G U54C U67A,0.2
19,A21G U31C A35U U80A,0.09
20,A21G U31C A45C U60A,0.24
21,A21G U31C A45G U72A,0.07
22,A21G U31C A45G U76A,0.21
23,A21G U31C A45G U76C,0.4
